{"source": "the supplement of paper PMC12067230", "note": "Single values of this set are uncertain.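 Further: [psi-pin-] Saccharomyces cerevisiae expressing SupN fusions, induced by 100 µM Cu2SO4, selected 7 d at 30 °C without adenine and uracil, scored by deep sequencing of output versus input.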", "data": [{"assay": "amyloid nucleation score relative to library mode (yeast Sup35 reporter selection) (log enrichment difference); higher = more amyloid nucleation", "conditions": "random library (experiment): 1;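 active = nucleation score significantly above 0 at FDR 0.05; inactive = not significantly above 0 or absent from output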", "procedure": "(§1)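 Random C-terminal extensions of the 22-aa Bri2 peptide by 12 NNK codons; premature stops give shorter extensions. Peptides were fused to the Sup35 nucleation domain in S. cerevisiae [psi-pin-] and selected on -ADE-URA plates for 7 d at 30 °C. The nucleation score is log(output/input), centred to the mode of each of 3 independent libraries (1 input, 3 technical output replicates), with duplicates merged. Sequences absent from the output ('random_non_nuc') were imputed with the library mode value, so they are given as censored (<). Nucleators are scores significantly >0 at FDR 0.05.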", "values": [{"sequence": "EASNCFAIRHFENKFAVETLICCFPVVMVAWMRR", "amyloid nucleation score": "inactive"}, {"sequence": "EASNCFAIRHFENKFAVETLICCFR", "amyloid nucleation score": 7.15}, {"sequence": "EASNCFAIRHFENKFAVETLICCFWGPHDSRPCW", "amyloid nucleation score": 7.64}, {"sequence": "EASNCFAIRHFENKFAVETLICCFYCSCVTGW", "amyloid nucleation score": "inactive"}, {"sequence": "EASNCFAIRHFENKFAVETLICCFYTVGK", "amyloid nucleation score": 8.41}, {"sequence": "EASNCFAIRHFENKFAVETLICCGAQALGNGRTL", "amyloid nucleation score": 7.21}, {"sequence": "EASNCFAIRHFENKFAVETLICCGAQVLWLWKVS", "amyloid nucleation score": 7.5}, {"sequence": "EASNCFAIRHFENKFAVETLICCGARWCASWGSE", "amyloid nucleation score": 8.6}, {"sequence": "EASNCFAIRHFENKFAVETLICCGDELSNEVVIR", "amyloid nucleation score": 6.12}, {"sequence": "EASNCFAIRHFENKFAVETLICCGDSSQCSWHTT", "amyloid nucleation score": 7.93}, {"sequence": "EASNCFAIRHFENKFAVETLICCGDVRQLDKLCR", "amyloid nucleation score": 3.75}, {"sequence": "EASNCFAIRHFENKFAVETLICCGFKPRGSMVGR", "amyloid nucleation score": 7.57}, {"sequence": "EASNCFAIRHFENKFAVETLICCGGCTRDWHGPG", "amyloid nucleation score": 8.38}, {"sequence": "EASNCFAIRHFENKFAVETLICCGGQTMTYVSWA", "amyloid nucleation score": 7.99}, {"sequence": "EASNCFAIRHFENKFAVETLICCGKLSLDDSGCG", "amyloid nucleation score": 7.86}, {"sequence": "EASNCFAIRHFENKFAVETLICCGLAPRHLVLSD", "amyloid nucleation score": 5.36}, {"sequence": "EASNCFAIRHFENKFAVETLICCGLVVMNGRSSA", "amyloid nucleation score": 9.04}, {"sequence": "EASNCFAIRHFENKFAVETLICCGM", "amyloid nucleation score": 7.56}, {"sequence": "EASNCFAIRHFENKFAVETLICCGMFQVWSFMFG", "amyloid nucleation score": 7.13}, {"sequence": "EASNCFAIRHFENKFAVETLICCGMFRYSLGNGR", "amyloid nucleation score": 8.58}, {"sequence": "EASNCFAIRHFENKFAVETLICCGMIACRKGAHD", "amyloid nucleation score": 8.35}, {"sequence": "EASNCFAIRHFENKFAVETLICCGNFSVLISH", "amyloid nucleation score": 7.65}, {"sequence": "EASNCFAIRHFENKFAVETLICCGPLLLSEGMQP", "amyloid nucleation score": 6.45}, {"sequence": "EASNCFAIRHFENKFAVETLICCGQLPSGWKRMV", "amyloid nucleation score": "inactive"}, {"sequence": "EASNCFAIRHFENKFAVETLICCGQRCGARRFLR", "amyloid nucleation score": "inactive"}, {"sequence": "EASNCFAIRHFENKFAVETLICCGRPVWGPWRWV", "amyloid nucleation score": 5.12}, {"sequence": "EASNCFAIRHFENKFAVETLICCGRVTNWNDACP", "amyloid nucleation score": 8.04}, {"sequence": "EASNCFAIRHFENKFAVETLICCGRWRLMAYMEW", "amyloid nucleation score": "inactive"}, {"sequence": "EASNCFAIRHFENKFAVETLICCGSSGSGWRTRR", "amyloid nucleation score": 8.02}, {"sequence": "EASNCFAIRHFENKFAVETLICCGSYGVLQVRCG", "amyloid nucleation score": 4.31}, {"sequence": "EASNCFAIRHFENKFAVETLICCGV", "amyloid nucleation score": 4.1}, {"sequence": "EASNCFAIRHFENKFAVETLICCGVSAMPSNTSH", "amyloid nucleation score": 8.81}, {"sequence": "EASNCFAIRHFENKFAVETLICCGWALIPCGWTG", "amyloid nucleation score": 6.88}, {"sequence": "EASNCFAIRHFENKFAVETLICCGYAPATDRYVA", "amyloid nucleation score": 7.47}, {"sequence": "EASNCFAIRHFENKFAVETLICCHALQYPRVRRW", "amyloid nucleation score": 1.94}, {"sequence": "EASNCFAIRHFENKFAVETLICCHC", "amyloid nucleation score": 4.22}, {"sequence": "EASNCFAIRHFENKFAVETLICCHEPALGGASWD", "amyloid nucleation score": "inactive"}, {"sequence": "EASNCFAIRHFENKFAVETLICCHFRPVWRSRY", "amyloid nucleation score": 4.89}, {"sequence": "EASNCFAIRHFENKFAVETLICCHIRFSLVHICF", "amyloid nucleation score": "inactive"}, {"sequence": "EASNCFAIRHFENKFAVETLICCHKMLWITGCRW", "amyloid nucleation score": "inactive"}]}, {"assay": "amyloid nucleation score relative to library mode (yeast Sup35 reporter selection) (log enrichment difference); higher = more amyloid nucleation", "conditions": "random library (experiment): 2", "procedure": "as §1", "values": [{"sequence": "EASNCFAIRHFENKFAVETLICCFQIF", "amyloid nucleation score": 8.47}, {"sequence": "EASNCFAIRHFENKFAVETLICCFS", "amyloid nucleation score": 2.37}, {"sequence": "EASNCFAIRHFENKFAVETLICCFSDKTVLTNWV", "amyloid nucleation score": 6.26}, {"sequence": "EASNCFAIRHFENKFAVETLICCFSGKSMSKGWL", "amyloid nucleation score": 6.63}, {"sequence": "EASNCFAIRHFENKFAVETLICCFSKA", "amyloid nucleation score": 6.93}, {"sequence": "EASNCFAIRHFENKFAVETLICCFSLLTFATPWL", "amyloid nucleation score": "inactive"}, {"sequence": "EASNCFAIRHFENKFAVETLICCFSNWSVLTETE", "amyloid nucleation score": 8.66}, {"sequence": "EASNCFAIRHFENKFAVETLICCFSRFHIYASFV", "amyloid nucleation score": "inactive"}, {"sequence": "EASNCFAIRHFENKFAVETLICCFSRFLKECGSV", "amyloid nucleation score": "inactive"}, {"sequence": "EASNCFAIRHFENKFAVETLICCFVLLNSNRAAI", "amyloid nucleation score": 3.17}, {"sequence": "EASNCFAIRHFENKFAVETLICCFVVSL", "amyloid nucleation score": 8.03}, {"sequence": "EASNCFAIRHFENKFAVETLICCFWHSSPSWTSQ", "amyloid nucleation score": 9.11}, {"sequence": "EASNCFAIRHFENKFAVETLICCFWK", "amyloid nucleation score": 6.48}, {"sequence": "EASNCFAIRHFENKFAVETLICCFYGLLSCSLSH", "amyloid nucleation score": -0.432}, {"sequence": "EASNCFAIRHFENKFAVETLICCFYLG", "amyloid nucleation score": 7.56}, {"sequence": "EASNCFAIRHFENKFAVETLICCFYV", "amyloid nucleation score": 8.27}, {"sequence": "EASNCFAIRHFENKFAVETLICCGFFATYSKWWD", "amyloid nucleation score": 5.46}, {"sequence": "EASNCFAIRHFENKFAVETLICCGLF", "amyloid nucleation score": 8.51}, {"sequence": "EASNCFAIRHFENKFAVETLICCGMVGVSWSAIY", "amyloid nucleation score": "inactive"}, {"sequence": "EASNCFAIRHFENKFAVETLICCGNMYLSPYTCW", "amyloid nucleation score": 8.12}, {"sequence": "EASNCFAIRHFENKFAVETLICCGPNSDVMKRDT", "amyloid nucleation score": 4.96}, {"sequence": "EASNCFAIRHFENKFAVETLICCGRFHGRYAFYR", "amyloid nucleation score": "inactive"}, {"sequence": "EASNCFAIRHFENKFAVETLICCGRYIQRMIKVS", "amyloid nucleation score": -0.0392}, {"sequence": "EASNCFAIRHFENKFAVETLICCGSIALPRLNGR", "amyloid nucleation score": 8.8}, {"sequence": "EASNCFAIRHFENKFAVETLICCGVFIVFPGACW", "amyloid nucleation score": 4.44}, {"sequence": "EASNCFAIRHFENKFAVETLICCGWRLQGVEGLA", "amyloid nucleation score": 5.96}, {"sequence": "EASNCFAIRHFENKFAVETLICCGYTSNRASSWA", "amyloid nucleation score": 8.41}, {"sequence": "EASNCFAIRHFENKFAVETLICCHADKDFFARAS", "amyloid nucleation score": 0.727}, {"sequence": "EASNCFAIRHFENKFAVETLICCHFDNRLLLHCE", "amyloid nucleation score": "inactive"}, {"sequence": "EASNCFAIRHFENKFAVETLICCHGLVDCEVKFW", "amyloid nucleation score": 7.84}, {"sequence": "EASNCFAIRHFENKFAVETLICCHHNMSIFASEL", "amyloid nucleation score": 5.61}, {"sequence": "EASNCFAIRHFENKFAVETLICCHLISVHTDLRG", "amyloid nucleation score": 5.82}]}, {"assay": "amyloid nucleation score relative to library mode (yeast Sup35 reporter selection) (log enrichment difference); higher = more amyloid nucleation; sequences are the first 22 residues of the Bri2 peptide extended by up to 12 random residues", "conditions": "random library (experiment): 3", "procedure": "as §1", "values": [{"sequence": "EASNCFAIRHFENKFAVETLICCFPMVI", "amyloid nucleation score": 7.17}, {"sequence": "EASNCFAIRHFENKFAVETLICCFRGRGSMMACW", "amyloid nucleation score": "inactive"}, {"sequence": "EASNCFAIRHFENKFAVETLICCFSKYCI", "amyloid nucleation score": 5.45}, {"sequence": "EASNCFAIRHFENKFAVETLICCGAKNASPVVMR", "amyloid nucleation score": "inactive"}, {"sequence": "EASNCFAIRHFENKFAVETLICCGCFGP", "amyloid nucleation score": 9.35}, {"sequence": "EASNCFAIRHFENKFAVETLICCGDVPRVMWSGV", "amyloid nucleation score": 4.44}, {"sequence": "EASNCFAIRHFENKFAVETLICCGEWMLTLVMVE", "amyloid nucleation score": "inactive"}, {"sequence": "EASNCFAIRHFENKFAVETLICCGLERGRAWFDA", "amyloid nucleation score": 6.78}, {"sequence": "EASNCFAIRHFENKFAVETLICCGLSLYMAWDYG", "amyloid nucleation score": 0.675}, {"sequence": "EASNCFAIRHFENKFAVETLICCGMLTWVCAVHS", "amyloid nucleation score": "inactive"}, {"sequence": "EASNCFAIRHFENKFAVETLICCGPCVVIVIAPP", "amyloid nucleation score": "inactive"}, {"sequence": "EASNCFAIRHFENKFAVETLICCGRLGSPLTMES", "amyloid nucleation score": 5.65}, {"sequence": "EASNCFAIRHFENKFAVETLICCGRSTRKDAPSE", "amyloid nucleation score": 5.98}, {"sequence": "EASNCFAIRHFENKFAVETLICCGRTASAHWWGR", "amyloid nucleation score": 7.41}, {"sequence": "EASNCFAIRHFENKFAVETLICCGSVTICRCASV", "amyloid nucleation score": 9.06}, {"sequence": "EASNCFAIRHFENKFAVETLICCGSWYSCGRRYP", "amyloid nucleation score": 7.67}, {"sequence": "EASNCFAIRHFENKFAVETLICCH", "amyloid nucleation score": "inactive"}]}]}
